# From PubChem BioAssay AID995 (National Center for Advancing Translational Sciences (NCATS), 2007)
# Out of some 72,000 compounds screened, about 710 (0.99%) were called active. The inconclusive results got no clear call from the source; some entries with a clear call stand among them for comparison. Calls come from the whole dose curve; as a rule, active = well fitted inhibition curve with a large enough effect; inconclusive = small, poorly fitted or top-dose-only effect; inactive = no such curve, though single readings can be large or run the other way. Potencies of inconclusive entries are left out as doubtful fits.
# Assay: qHTS Assay for Inhibitors of the ERK Signaling Pathway using a Homogeneous Screening Assay; note: nearly all actives have a fitted effect of over 55% in size
# Settings: HEK293-V1b, vasopressin-stimulated pERK AlphaScreen; activity, negative = inhibition: at 57.5 µM (top of the series) unless noted
# Outline: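 V1b-HEK293 cells; cpd 30 min 37C; 25 nM vasopressin 5 min; lyse 10 min; AlphaScreen beads 5 hr RT. Normalized to DMSO basal and 25 nM vasopressin; AC50 by Hill fit.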
# % is set by controls: 0 for no effect and ±100 for the full control effect; potency is the fitted concentration of half-maximal effect; tags give direction and shape of the fitted curve.
SMILES,Potency,"activity, negative = inhibition"
O=C(c1cc(-c2cccc(O)c2)on1)N1CCOCC1,"inconclusive [inhibitor, partial curve]",–
CS(=O)(=O)Nc1cccc(-c2ccc3ncnc(N4CCOCC4)c3c2)c1,"inconclusive [inhibitor, partial curve]",–
[O-]/[N+](=N\O)c1ccccc1,–,inactive: 9.26%
COc1ccc(NC(=O)C2CCCN(S(=O)(=O)c3cccc4nonc34)C2)c(OC)c1 (centres undefined),–,inactive: 0.401%
CCOc1ccccc1NC(=O)c1ccccc1-c1nc(-c2ccccc2)no1,–,inactive: 20.6%
COC(=O)c1ccc(S(=O)(=O)NCCSc2nnc3c4ccccc4n(C)c3n2)cc1,"inconclusive [inhibitor, partial curve, poor fit]",–
Cc1ccc(S(=O)(=O)c2nc(-c3ccccc3)oc2NCCN2CCOCC2)cc1,"inconclusive [inhibitor, single point]",–
CCOC(=O)c1ccc(NC(=O)CSc2nnc(-c3cccs3)n2C)cc1,"inconclusive [inhibitor, single point]",–
COC(=O)c1ccc(C#CC(NP(=O)(c2ccccc2)c2ccccc2)c2ccccc2)cc1 (centres undefined),–,inactive: -28.8%
COc1cccc(OC)c1OCCNC[C@@H]1COc2ccccc2O1,"inconclusive [inhibitor, full curve, poor fit]",–
O=C(CNCC1CCCO1)Nc1ccc(N2CCCCCC2)cc1 (centres undefined),"inconclusive [inhibitor, single point]",–
O=C(CN1CCN(c2ccccn2)CC1)Nc1ccc(OCc2ccccc2)cc1,–,inconclusive: -32.1% [inhibitor]
O=C(Oc1ccc2ccc(OC(=O)N3CCOCC3)cc2c1)N1CCOCC1,–,inactive: 2.34%
C/C(Cl)=C/Cn1c(SCc2ccc(Cl)cc2)nc2c1c(=O)[nH]c(=O)n2C,–,inactive: 5.62%
N#Cc1nc(N2CCCCC2)nc(N2CCOCC2)n1,"inconclusive [inhibitor, full curve]",–
COc1cccc(-c2csc(N3CCN(C(=O)C4CCCCC4)CC3)n2)c1,"inconclusive [inhibitor, single point]",–
Cc1nc2ncnn2c(C)c1CCC(=O)N1CCc2ccccc21,"inconclusive [inhibitor, full curve, poor fit]",–
COc1cccc(NC(=O)N2CCN(Cc3nc4ccccc4c(=O)[nH]3)CC2)c1,–,inactive: 7.5%
COc1ccc(CNc2ccnc(-c3c(C)noc3C)n2)c(OC)c1,"inconclusive [inhibitor, single point]",–
COc1ccc(Nc2oc(COc3cccc(C)c3)nc2C#N)cc1,"inconclusive [inhibitor, partial curve]",–
CCCCc1nc2n[nH]c(N)c2c2c1CCC2,active: 15.8 µM,–
O=C(Oc1ccccc1)N1CCC[C@@]2(CCN(c3ncccn3)C2)C1,–,inconclusive: -39.6% [inhibitor]
COc1cc(C(=O)Nc2nc3ccc(S(=O)(=O)N4CCOCC4)cc3s2)cc(OC)c1OC,"inconclusive [inhibitor, partial curve, poor fit]",–
CN1CCN(CC(=O)N2CCn3c4c(c5cc(C6CCCCC6)ccc53)CCCC42)CC1 (centres undefined),"inconclusive [inhibitor, single point]",–
COc1ccccc1CNc1ncncc1-c1ccc(N(C)C)cc1,"inconclusive [inhibitor, single point]",–

SMILES,Potency,"activity, negative = inhibition"
COC(=O)c1ccc(CSc2nccn2C)cc1,–,inactive: -11.2%
CCSc1nnc(-c2cccc(S(=O)(=O)N(CC)CC)c2)n1Cc1ccccc1,–,inactive: 10.6%
O=C(c1cccc(C(=O)N2CCN(Cc3ccccc3)CC2)c1)N1CCN(Cc2ccccc2)CC1,"inconclusive [inhibitor, single point]",–
O=C(COC(=O)c1cc(-c2cccs2)nc2ccccc12)NCc1ccco1,"inconclusive [inhibitor, single point]",–
CCOC(=O)c1ccc2[nH]c3c(c2c1)CN(C)CC3,"inconclusive [inhibitor, single point]",–
CN(C)c1ccc(NC(=S)c2ccccn2)cc1,active: 15.8 µM,–
Cc1ccc(-c2cc(C(=O)N3CCN(c4ncccn4)CC3)c3ccccc3n2)cc1,–,inactive: -67.7%
Cc1nn(Cc2ccc(C(=O)Nc3ccc(C(=O)OC(C)C)cc3)o2)c(C)c1Cl,"inconclusive [inhibitor, partial curve]",–
O=C(O)CCCC(=O)Nc1cccc(-c2nc3ccccc3[nH]2)c1,–,inactive: -1.13%
COc1cc(CNc2ccc3[nH]c(=O)[nH]c3c2)ccc1OCC(=O)NC(C)(C)C,"inconclusive [inhibitor, partial curve]",–
COc1cccc(-c2nc(NCCNC(C)=O)c3ccccc3n2)c1,–,inactive: -4.14%
CCOC(=O)c1cc2c(=O)n3ccccc3nc2n(CCOC)c1=NC(=O)C(C)(C)C,–,inactive: 3.23%
O=C(O)c1cc(O)c2c(c1)[C@H]([C@H]1c3cc(C(=O)O)cc(O)c3C(=O)c3c(O[C@@H]4OC(CO)C(O)C(O)C4O)cccc31)c1cccc(O[C@@H]3OC(CO)C(O)C(O)C3O)c1C2=O (some centres undefined),"inconclusive [inhibitor, single point]",–
c1ccc(-c2nc(-n3ccnc3)nc(-n3ccnc3)n2)cc1,–,inactive: 16%
COc1ccc(-c2c(=O)n(OCc3ccccn3)c3ccccc3[n+]2[O-])cc1OC,"inconclusive [inhibitor, partial curve]",–
CC(=O)c1cc(OC(=O)c2ccncc2)ccc1OC(=O)c1ccncc1,"inconclusive [inhibitor, single point]",–
Cc1cc(=O)[nH]c(Nc2ccc(C(=O)OC(C)C)cc2)n1,"inconclusive [inhibitor, partial curve]",–
CCOc1ccc(-c2nc(C#N)c(NCc3ccc4c(c3)OCO4)o2)cc1,"inconclusive [inhibitor, partial curve]",–
COc1ccc(-n2c(=O)c(-c3ccccc3)nc3cnc(N4CCNCC4)nc32)cc1,–,inactive: 1.99%
c1c2c(cc3sc(N4CCCCC4)nc13)OCCO2,"inconclusive [inhibitor, partial curve]",–
COc1ccc2c(c1OC)C(Cc1ccccc1)N1CCc3cc4c(cc3C1=C2)OCO4 (centres undefined),active: 6.31 µM,–
CCN1CCN(Cc2ccc(NC(=O)Nc3ccccc3OC)cc2)CC1,–,inactive: 20.4%
CCn1c(=O)c2[nH]c(-c3ccccc3)nc2n(CC)c1=O,"inconclusive [inhibitor, full curve, poor fit]",–
CCC(C)COC(=O)c1ccc(C(=O)O)cc1 (centres undefined),–,inactive: 24.3%
COC(=O)[C@@H]1CCCN1C(=O)[C@@H](C)CO,–,inactive: -0.086% [at 11.5 µM]

SMILES,Potency,"activity, negative = inhibition"
O=C(O)CCSCC(=O)Nc1c(C(=O)C2CC2)oc2ccccc12,"inconclusive [inhibitor, partial curve]",–
COCCN(CCOC)S(=O)(=O)c1ccc(C(=O)Nc2nc(-c3ccncc3)cs2)cc1,active: 25.1 µM,–
CNCCCc1[nH]nc(N)c1C#N,"inconclusive [inhibitor, single point]",–
COc1ccccc1N1CCN(C(=O)C2c3ccccc3Oc3ccccc32)CC1,"inconclusive [inhibitor, partial curve]",–
O=c1c(-c2cccs2)nc2cncnc2n1Cc1ccc(F)cc1,–,inactive: 9.79%
O=C(c1ccco1)N1CCN(c2cccc(Cl)c2)CC1,–,inactive: 4.47%
O=C(c1c(Cl)nc2sccn12)N1CCN(c2cccc(Cl)c2)CC1,–,inactive: -13.2%
CCOC(=O)c1cc(-c2ccc(N)cc2)sc1N,–,inactive: -31.6%
COc1ccc(-c2nc(C#N)c(NCc3ccccc3Cl)o2)cc1,"inconclusive [inhibitor, partial curve]",–
Cc1cc(Nc2ccc(F)cc2Cl)n2nc(C)nc2n1,"inconclusive [inhibitor, partial curve, poor fit]",–
Cn1cccc1Cc1nnc(SCC(=O)N2CCOCC2)n1CCc1ccccc1,"inconclusive [inhibitor, partial curve]",–
CCN(CC)S(=O)(=O)c1ccc(-c2nnc(SCC(=O)N3CCOCC3)o2)cc1,–,inactive: 2.77%
Cc1cccc(-c2nc(C#N)c(N3CCCCCC3)o2)c1,"inconclusive [inhibitor, partial curve, poor fit]",–
CC1(CC(=O)O)O[C@H]2CCCCC[C@H]2O1 (some centres undefined) (tested in a mixture with another compound),–,inactive: 36% [at 11.5 µM]
C/C=C/Cn1c(SCc2ccc(C)cc2)nc2c1c(=O)[nH]c(=O)n2C,–,inactive: 13.3%
O=C(c1cccc(F)c1)N1CCC2(CC1)CN(c1ccccn1)C2,–,inactive: -8.97%
c1csc(-c2nnc(-c3ccc(N4CCOCC4)cc3)o2)c1,–,inactive: 6.97%
N#Cc1c(-c2ccco2)c2c([nH]c1=S)CCCC2,"inconclusive [inhibitor, partial curve, poor fit]",–
COc1ccc(C2SCCN2S(=O)(=O)c2ccc(F)cc2)cc1OC (centres undefined),active: 12.6 µM,–
CC(=O)Nc1ccc(S(=O)(=O)NCCC(=O)OCCN2C(=O)c3ccccc3C2=O)cc1,"inconclusive [inhibitor, single point]",–
COc1cccc(-c2nc(-c3ccccc3)no2)c1,–,inactive: 21.1%
CCCC[C@@H]1C[C@H]1C(NC(=O)c1ccc(C(F)(F)F)cc1)c1ccc(C(=O)OC)cc1 (some centres undefined),–,inactive: -6.2%
c1ccc(-c2nc(NCCCN3CCOCC3)c3ccccc3n2)cc1,"inconclusive [inhibitor, partial curve]",–
Oc1ccc(-c2nc3ncccn3c2Nc2ccc3c(c2)OCO3)cc1,"inconclusive [inhibitor, partial curve]",–
